Experimental data taken from the supplement of paper PMC4967469.

Columns and labels:
Assay in all cases: Viability of human cancer cell lines after 72 h of drug (GDSC screen)
Vorinostat = compound: O=C(CCCCCCC(=O)Nc1ccccc1)NO [Vorinostat]; settings: top dose 10 µM
Experimental: (§1)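 Human cancer cell lines in 384-well plates, medium with 10% serum, drug for 72 h over a 256-fold dose range (nine 2-fold or five 4-fold steps up to the top dose). Adherent lines were fixed and stained with the nucleic acid dye Syto60, suspension lines read with resazurin; signal relative to control wells, capped at 0 and 100%. One two-parameter sigmoid per drug and line, fitted in a mixed model over all curves with the slope shared within a line.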

Dabrafenib = compound: CC(C)(C)c1nc(-c2cccc(NS(=O)(=O)c3c(F)cccc3F)c2F)c(-c2ccnc(N)n2)s1 [Dabrafenib]; settings: top dose 10 µM
Experimental: as §1

Methotrexate = compound: CN(Cc1cnc2nc(N)nc(N)c2n1)c1ccc(C(=O)N[C@@H](CCC(=O)O)C(=O)O)cc1 [Methotrexate]; settings: top dose 0.2 µM
Experimental: as §1

SN-38 = compound: CCc1c2c(nc3ccc(O)cc13)-c1cc3c(c(=O)n1C2)COC(=O)[C@]3(O)CC [SN-38]; settings: top dose 0.05 µM; top dose inferred
Experimental: as §1

Axitinib = compound: CNC(=O)c1ccccc1Sc1ccc2c(/C=C/c3ccccn3)n[nH]c2c1 [Axitinib]; settings: top dose 2 µM
Experimental: as §1

Cell Line | AUC (Vorinostat) | IC50 (Vorinostat) [µM] | AUC (Dabrafenib) | IC50 (Dabrafenib) [µM] | AUC (Methotrexate) | IC50 (Methotrexate) [µM] | AUC (SN-38) | IC50 (SN-38) [µM] | AUC (Axitinib) | IC50 (Axitinib) [µM]
C2BBe1 (large intestine, adherent) | 0.472 | 0.519 | 0.984 | > 10 | 0.944 | > 0.2 | 0.956 | > 0.05 | 0.969 | > 2
H2461 (mesothelioma, adherent) | 0.922 | > 10 | 0.823 | 7.92 | 0.938 | > 0.2 | 0.747 | 0.0194 | 0.98 | > 2
LB647-SCLC (small cell lung carcinoma, semi-adherent) | 0.508 | 0.657 | 0.983 | > 10 | 0.945 | > 0.2 | 0.882 | > 0.05 | 0.882 | > 2
HuP-T3 (pancreas, adherent) | 0.664 | 1.98 | 0.974 | > 10 | 0.982 | > 0.2 | 0.825 | 0.0392 | 0.955 | > 2
KARPAS-45 (lymphoblastic leukaemia, suspension) | 0.349 | 0.259 | 0.989 | > 10 | 0.964 | > 0.2 | 0.98 | > 0.05 | 0.896 | 1.73
H4 (glioma, adherent) | 0.651 | 1.63 | 0.946 | > 10 | 0.983 | > 0.2 | 0.408 | 0.00175 | 0.82 | 1.13
YH-13 (glioma, adherent) | 0.663 | 1.82 | 0.92 | > 10 | 0.983 | > 0.2 | 0.744 | 0.0164 | 0.83 | 1.36
PEO1 (ovary, adherent) | 0.82 | 6.05 | 0.97 | > 10 | 0.902 | > 0.2 | 0.56 | 0.00458 | 0.943 | > 2
NCI-H1838 (lung adenocarcinoma, adherent) | 0.852 | > 10 | 0.97 | > 10 | 0.952 | > 0.2 | 0.921 | > 0.05 | 0.987 | > 2
CTB-1 (B-cell lymphoma, suspension) | 0.494 | 0.598 | 0.95 | > 10 | 0.503 | 0.0128 | 0.756 | 0.023 | 0.92 | > 2
HDLM-2 (Hodgkin lymphoma, suspension) | 0.619 | 1.32 | 0.918 | > 10 | 0.885 | > 0.2 | 0.747 | 0.0157 | 0.927 | > 2
SW954 (urogenital system, adherent) | 0.531 | 0.762 | 0.963 | > 10 | 0.835 | 0.134 | 0.418 | 0.00185 | 0.924 | > 2
DK-MG (glioma, adherent) | 0.871 | > 10 | 0.945 | > 10 | 0.977 | > 0.2 | 0.843 | > 0.05 | 0.868 | > 2
MC-CAR (haematopoietic neoplasm, suspension) | 0.561 | 0.901 | 0.916 | > 10 | 0.781 | 0.074 | 0.753 | 0.0151 | 0.868 | 1.5
KNS-81-FD (glioma, adherent) | 0.89 | > 10 | 0.897 | > 10 | 0.965 | > 0.2 | 0.625 | 0.0078 | 0.962 | > 2
DSH1 (bladder, adherent) | 0.701 | 2.23 | 0.988 | > 10 | 0.91 | > 0.2 | 0.72 | 0.0127 | 0.989 | > 2
H3255 (lung adenocarcinoma, adherent) | 0.947 | > 10 | 0.943 | > 10 | 0.962 | > 0.2 | 0.791 | 0.0273 | 0.984 | > 2
Detroit562 (head and neck, adherent) | 0.777 | 3.86 | 0.966 | > 10 | 0.977 | > 0.2 | 0.716 | 0.0124 | 0.964 | > 2
KP-N-YN (neuroblastoma, adherent) | 0.801 | 5.41 | 0.983 | > 10 | 0.986 | > 0.2 | 0.764 | 0.0199 | 0.969 | > 2
TE-6 (oesophagus, adherent) | 0.777 | 4.73 | 0.972 | > 10 | 0.979 | > 0.2 | 0.975 | > 0.05 | 0.976 | > 2
SW1417 (large intestine, adherent) | 0.821 | 7.14 | 0.928 | > 10 | 0.946 | > 0.2 | 0.853 | 0.0498 | 0.986 | > 2
LK-2 (lung squamous cell carcinoma, adherent) | 0.749 | 3.08 | 0.985 | > 10 | 0.913 | > 0.2 | 0.726 | 0.0131 | 0.909 | > 2
L-1236 (Hodgkin lymphoma, suspension) | 0.595 | 1.09 | 0.988 | > 10 | 0.804 | 0.0823 | 0.882 | 0.0389 | 0.992 | > 2
no-10 (glioma, adherent) | 0.892 | > 10 | 0.944 | > 10 | 0.97 | > 0.2 | 0.64 | 0.00834 | 0.983 | > 2
KP-3 (pancreas, adherent) | 0.864 | > 10 | 0.858 | > 10 | 0.91 | > 0.2 | 0.909 | > 0.05 | 0.973 | > 2

The IC50 comes from the fitted curve, where viability falls to half of the control; where the fit passes the top or lowest dose, that dose stands as a limit. For AUC the same curve is integrated over the 256-fold range of doses and scaled to a fraction: 1 means no effect, lower means more sensitive. For some of these results: An inferred top dose was derived from the fitted curves, not read from the paper.
